# Whole data set: some 81,000 sequences, median “one-hybrid fitness for binding NBS DNA” near -0.1, cut for the highest 2% near 0.36. Some of the results follow.
# B1: Caulobacter ParB omega fusion; a variant is named by its letters at X, in order, B8GW30 (parent)
# chain: MESVVVGEPGMSEGRRGLGRGLSALLGEVDAAPAQAPGEQLGGSREAPIEILQRNPDQPRRTFREEDLEDLSNSIREKGVLQPILVRPSPDTAGEYQIVAGERAWRAAQRAGLKTVPIMVRELDDLAVLEIGIIENVQRADLNVLEEALSYKVLMEKFERTQENIAQTIGKSXSHVANXMRLLXLPDEVQSYLVSGELTAXHARAIAAAADPVALAKQIIEGGLSVRETEALARKAPNLSAGKSKGGRPPRVKDTDTQALESDLSSVLGLDVSIDHRGSTGTLTITYATLEQLDDLCNRLTRGI
# Variants of: B1
# Assay: one-hybrid fitness for binding NBS DNA (the Noc-binding site; scaled: cognate 1, non-cognate 0); higher = stronger binding
# Details: with NBS DNA site
# Method in brief: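 Values were rescaled so that cognate is 1 and non-cognate is 0. Each is a fitness, the log change in a variant's read ratio to wild type from Illumina reads of plasmids before and after selection, with three replicate libraries pooled and variants under 10 reads dropped. Selection of the Caulobacter ParB libraries, four specificity codons randomised, used E. coli USO with a HIS3 reporter, site 19 bp from the promoter, on M9-minus-histidine with 0.1 mM IPTG and 5 mM 3-AT for 48 hours at 37°C.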
row,Variant,one-hybrid fitness for binding NBS DNA
1,HRHC,≤ 0.2
2,RPRC,≤ 0.2
3,ASFY,≤ 0.2
4,DETF,≤ 0.2
5,CYTS,≤ 0.2
6,KMNT,≤ 0.2
7,CHRK,≤ 0.2
8,IDQS,≤ 0.2
9,IAAG,≤ 0.2
10,HRKD,≤ 0.2
11,NRTV,≤ 0.2
12,LHNI,≤ 0.2
13,HMKA,≤ 0.2
14,TCSP,≤ 0.2
15,DDTY,≤ 0.2
16,SKNP,≤ 0.2
17,CVKV,≤ 0.2
18,ELHT,≤ 0.2
19,IDLL,≤ 0.2
20,MTQS,≤ 0.2
21,QPYG,≤ 0.2
22,SVAW,≤ 0.2
23,RCGK,≤ 0.2
24,GKCG,≤ 0.2
25,NTNI,≤ 0.2

row,Variant,one-hybrid fitness for binding NBS DNA
1,AGVL,≤ 0.2
2,WWNR,≤ 0.2
3,KDDG,≤ 0.2
4,PIVV,≤ 0.2
5,AGEF,≤ 0.2
6,GAEM,≤ 0.2
7,CVSL,≤ 0.2
8,SATY,≤ 0.2
9,KDGR,≤ 0.2
10,TTFW,≤ 0.2
11,YSHM,≤ 0.2
12,ATCM,≤ 0.2
13,VSDG,≤ 0.2
14,SLPV,≤ 0.2
15,MFVY,≤ 0.2
16,MCRC,≤ 0.2
17,ELRF,≤ 0.2
18,RIIA,≤ 0.2
19,MSPC,≤ 0.2
20,EIHS,≤ 0.2
21,QYTR,0.572
22,RCAQ,≤ 0.2
23,RIVG,≤ 0.2
24,FHRN,≤ 0.2
25,TVNM,≤ 0.2

row,Variant,one-hybrid fitness for binding NBS DNA
1,RIKL,≤ 0.2
2,SFWY,≤ 0.2
3,IYAM,≤ 0.2
4,WWSG,≤ 0.2
5,RRFV,0.213
6,ILIS,≤ 0.2
7,LFVM,≤ 0.2
8,NPNL,≤ 0.2
9,RATT,0.415
10,LSFT,≤ 0.2
11,LPPC,≤ 0.2
12,IQKS,≤ 0.2
13,CNAT,≤ 0.2
14,IDPD,≤ 0.2
15,LQET,≤ 0.2
16,DKKC,≤ 0.2
17,NAPI,≤ 0.2
18,PTHC,≤ 0.2
19,NLTC,≤ 0.2
20,RGTW,≤ 0.2
21,PLDC,≤ 0.2
22,NATS,≤ 0.2
23,HQCT,≤ 0.2
24,WKTR,≤ 0.2
25,LNCR,≤ 0.2

row,Variant,one-hybrid fitness for binding NBS DNA
1,SPRQ,≤ 0.2
2,LRPW,≤ 0.2
3,GVRF,≤ 0.2
4,KCCC,≤ 0.2
5,KSPM,≤ 0.2
6,LYVC,≤ 0.2
7,LWAL,≤ 0.2
8,RVCA,≤ 0.2
9,HADM,≤ 0.2
10,NVGW,≤ 0.2
11,RYLF,≤ 0.2
12,LSTK,≤ 0.2
13,NCWS,≤ 0.2
14,FAPC,≤ 0.2
15,PSAE,≤ 0.2
16,LDVR,0.201
17,FEQS,≤ 0.2
18,QTWR,0.529
19,QYYT,0.352
20,KQPL,≤ 0.2
21,CSTA,≤ 0.2
22,YLDA,≤ 0.2
23,TVPS,≤ 0.2
